The list shows a part of the results. The energies were worked out here from pooled read counts, against the library average; single values are noisy.

We go through 115 sequences from the BET-seq Pho4 binding data (Le et al. 2018).

The experiment concerns the target T1, Pho4 (S. cerevisiae) (UniProt P07270).
T1 sequence: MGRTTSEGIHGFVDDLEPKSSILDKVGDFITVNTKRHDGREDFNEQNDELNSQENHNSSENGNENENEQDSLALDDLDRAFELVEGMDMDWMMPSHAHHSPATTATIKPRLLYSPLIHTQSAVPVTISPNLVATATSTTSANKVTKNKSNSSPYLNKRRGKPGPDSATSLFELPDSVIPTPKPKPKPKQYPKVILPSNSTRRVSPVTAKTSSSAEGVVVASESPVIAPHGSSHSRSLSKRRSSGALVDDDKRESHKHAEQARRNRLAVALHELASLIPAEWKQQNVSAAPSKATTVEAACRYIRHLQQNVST
In words: relative binding free energy (BET-seq); higher = weaker binding. Particulars: reference: library average.
As for AGGGTCACGTGGCACA, the “relative binding free energy” value was determined as 0.1 kcal/mol.

As to TGTCACACGTGGCAGG, the “relative binding free energy” value stood at 0.04 kcal/mol. The value for GGTGACACGTGGCGGA was 0.03 kcal/mol.

For AAGCTCACGTGGTTTG, the “relative binding free energy” value came out at 0.27 kcal/mol.

CTGATCACGTGTGTGG: the “relative binding free energy” value stood at 0.1 kcal/mol. The value for CATGACACGTGGGATG was -0.08 kcal/mol; that for TTGTTCACGTGGGGAG was 0.2 kcal/mol. The same measure for CTAGGCACGTGGAGTA: -0.01 kcal/mol; for AGTGCCACGTGCTGTT: -0.04 kcal/mol; for TATACCACGTGTGTTT: -0.1 kcal/mol. The same measure for GCTTTCACGTGATAAG: 0.53 kcal/mol; for CGTGTCACGTGGATGT: 0.06 kcal/mol.

As to TAATTCACGTGTGCGT, the “relative binding free energy” value amounted to 0.26 kcal/mol. The value for CGGTGCACGTGTTATT was 0 kcal/mol; that for TGTGACACGTGAGGTA was 0.19 kcal/mol. The value for TATATCACGTGGGACG was 0.06 kcal/mol; that for CTAGGCACGTGATTTA was -0.03 kcal/mol. The same measure for GTTGACACGTGTAGTT: 0.17 kcal/mol; for TGTGACACGTGTGCTA: -0.05 kcal/mol. As to GGTGGCACGTGTTAAA, the “relative binding free energy” value was -0.03 kcal/mol. GGTAGCACGTGAAGAT: the “relative binding free energy” value was 0.23 kcal/mol. The value for TAATTCACGTGCGGGT was 0.19 kcal/mol; that for TTTTTCACGTGTACGA was 0.41 kcal/mol. On to CGCTGCACGTGGGGTA, for which the “relative binding free energy” value was -0.27 kcal/mol. The same measure for AGATTCACGTGTCGTT: 0.25 kcal/mol; for TTAGACACGTGAGGGC: 0.28 kcal/mol; for GTACGCACGTGATGGG: -0.04 kcal/mol.

As for GGTTACACGTGCCGGG, the “relative binding free energy” value was determined as 0.14 kcal/mol. As to TGAGGCACGTGGGGGC, the “relative binding free energy” value was -0.22 kcal/mol. For CAGTTCACGTGGGGTG, the “relative binding free energy” value amounted to 0.17 kcal/mol. The same measure for CGGTTCACGTGGTAGT: 0.33 kcal/mol.

Regarding GGTGCCACGTGTGGTG, the “relative binding free energy” value is -0.06 kcal/mol. The same measure for GTTATCACGTGCGTTA: 0.14 kcal/mol; for ATCAGCACGTGGTTTA: -0.16 kcal/mol; for GGTATCACGTGCAAGG: 0.14 kcal/mol.

GTTTACACGTGTTCGA: the “relative binding free energy” value turned out to be 0.16 kcal/mol. The value for TGTTACACGTGAAATA was 0.5 kcal/mol; that for TGTAGCACGTGAGCAG was 0.2 kcal/mol. The same measure for TGTGGCACGTGTGATC: -0.02 kcal/mol; for AGGGACACGTGCGGGA: -0.08 kcal/mol. The same measure for TAAGTCACGTGGGGCC: -0.02 kcal/mol. On to GATTGCACGTGCGGTT, for which the “relative binding free energy” value is 0.04 kcal/mol.

As for GGTTCCACGTGCGGGA, the “relative binding free energy” value was 0.05 kcal/mol. The value for TGTTCCACGTGAATTG was 0.2 kcal/mol. TTGGACACGTGTACGT: the “relative binding free energy” value came to 0.15 kcal/mol. Regarding TATAACACGTGTTGAA, the “relative binding free energy” value was 0.07 kcal/mol. The value for AGTATCACGTGGGTCC was 0.11 kcal/mol. As to CGGATCACGTGTTGAG, the “relative binding free energy” value worked out at 0.15 kcal/mol. The value for GGGCCCACGTGGGGCG was -0.29 kcal/mol. The value for TGACTCACGTGGTTTT was 0.1 kcal/mol.

As to TATCTCACGTGGTAGA, the “relative binding free energy” value came to 0.14 kcal/mol. As to GTGTGCACGTGTCAAG, the “relative binding free energy” value was -0.05 kcal/mol.

In the case of GGTAACACGTGGTGTT, the “relative binding free energy” value was 0.07 kcal/mol. Take GTGTGCACGTGTAAGT: the “relative binding free energy” value came out at 0.14 kcal/mol. The value for TTTGGCACGTGCGAGC was -0.11 kcal/mol. GTTGGCACGTGCGCTG: the “relative binding free energy” value is -0.24 kcal/mol. The same measure for ATGGGCACGTGGGTTA: -0.2 kcal/mol; for TGTAACACGTGCTTTA: -0.05 kcal/mol. The value for TGAAACACGTGTGCGG was -0.05 kcal/mol; that for CGGTGCACGTGGGTTT was -0.11 kcal/mol; that for GCGGTCACGTGGGTGC was 0.1 kcal/mol. Take TTGTACACGTGGGGTA: the “relative binding free energy” value is -0.03 kcal/mol.

Consider TTGCACACGTGGGGGC, for which the “relative binding free energy” value is -0.14 kcal/mol. Consider TAACTCACGTGTTGTG, for which the “relative binding free energy” value turned out to be 0.15 kcal/mol. On to TTATGCACGTGAGGGT, for which the “relative binding free energy” value is 0.17 kcal/mol. The value for GCATGCACGTGGCGTG was -0.13 kcal/mol; that for GCGGCCACGTGTTGGG was 0.03 kcal/mol; that for ACGTTCACGTGTTTTT was 0.29 kcal/mol.

Turning to GGCAACACGTGGGGAG, the “relative binding free energy” value was -0.06 kcal/mol. AGGTGCACGTGTGTTA: the “relative binding free energy” value worked out at 0.01 kcal/mol. The same measure for TAGGCCACGTGGGGCG: -0.21 kcal/mol; for TGAACCACGTGTTTGT: -0.15 kcal/mol; for TGCGTCACGTGTGCTT: -0.03 kcal/mol.

In the case of CGTTTCACGTGATGGC, the “relative binding free energy” value amounted to 0.27 kcal/mol. The value for GGAAGCACGTGATTAG was 0.15 kcal/mol; that for TGGGGCACGTGGGCCG was -0.3 kcal/mol; that for AGGTCCACGTGGCGGT was -0.12 kcal/mol. The value for GTCTTCACGTGGAAGT was 0.33 kcal/mol. The value for GGTATCACGTGTTGGA was 0.12 kcal/mol; that for AGAGTCACGTGTATGG was 0.19 kcal/mol. For the sequence TGAGGCACGTGCGAGA, the “relative binding free energy” value was -0.05 kcal/mol. The value for TAGGGCACGTGAGCCT was 0.23 kcal/mol; that for TAGGGCACGTGAAGAG was 0.07 kcal/mol; that for TTTTACACGTGGATAA was 0.05 kcal/mol.

For CTGGTCACGTGGGTTC, the “relative binding free energy” value was -0.14 kcal/mol.

For AGGTGCACGTGAGTAC, the “relative binding free energy” value worked out at 0.17 kcal/mol. The value for ATTTACACGTGTGAGT was 0.19 kcal/mol; that for GGACCCACGTGTGGGG was -0.07 kcal/mol; that for GTAGTCACGTGAATTG was 0.25 kcal/mol. The same measure for TTTGGCACGTGTTCTT: -0.13 kcal/mol; for CGGCGCACGTGGAGTT: -0.08 kcal/mol. The same measure for ATGTCCACGTGAGGTT: 0.37 kcal/mol. TGTGTCACGTGAGACG: the “relative binding free energy” value turned out to be 0.27 kcal/mol.

For the sequence ACGGTCACGTGTAGAG, the “relative binding free energy” value worked out at 0.21 kcal/mol.

Consider GCTGTCACGTGGTAAT, for which the “relative binding free energy” value came to 0.21 kcal/mol. The value for AATGTCACGTGTATTT was 0.11 kcal/mol. The value for TGTGGCACGTGAAGGC was 0.15 kcal/mol; that for ATGTACACGTGTTTCG was 0.19 kcal/mol; that for AGGCACACGTGGGTGC was -0.18 kcal/mol.

In the case of AGTGGCACGTGTCACG, the “relative binding free energy” value was -0.12 kcal/mol. The same measure for TAGTACACGTGGGAAA: 0.07 kcal/mol; for GGGGGCACGTGGGATT: -0.01 kcal/mol; for GTTGACACGTGGCGGG: 0.07 kcal/mol.

As to AGCTTCACGTGTCGGT, the “relative binding free energy” value is 0.18 kcal/mol. The value for TTGATCACGTGAGTAG was 0.31 kcal/mol; that for GTGTGCACGTGAGAGT was 0.17 kcal/mol; that for TGCTGCACGTGTTAAT was 0.16 kcal/mol.

With ATTGTCACGTGTGGGC, the “relative binding free energy” value was determined as 0.07 kcal/mol. For the sequence ATATGCACGTGGGTGT, the “relative binding free energy” value was -0.19 kcal/mol.

As for TGTAACACGTGTGCAG, the “relative binding free energy” value came out at 0.01 kcal/mol. In the case of TCTATCACGTGTTGGG, the “relative binding free energy” value came out at 0.13 kcal/mol.

As for CAGGACACGTGGTGGG, the “relative binding free energy” value worked out at 0.02 kcal/mol.

As for TTTTACACGTGCAATT, the “relative binding free energy” value worked out at 0.02 kcal/mol. The same measure for TATATCACGTGGCGTT: 0.08 kcal/mol; for TGCTGCACGTGGATTT: 0.03 kcal/mol.
